# Measurements taken from the supplement of paper PMC3334620.
# In all, about 33,000 sequences were measured (“E-score (-0.5 to 0.5)”: median about -0.035, highest 2% from about 0.35 on). Some of the results follow.
# Target: T1, Pdr3 (UniProt P33200)
# T1 sequence: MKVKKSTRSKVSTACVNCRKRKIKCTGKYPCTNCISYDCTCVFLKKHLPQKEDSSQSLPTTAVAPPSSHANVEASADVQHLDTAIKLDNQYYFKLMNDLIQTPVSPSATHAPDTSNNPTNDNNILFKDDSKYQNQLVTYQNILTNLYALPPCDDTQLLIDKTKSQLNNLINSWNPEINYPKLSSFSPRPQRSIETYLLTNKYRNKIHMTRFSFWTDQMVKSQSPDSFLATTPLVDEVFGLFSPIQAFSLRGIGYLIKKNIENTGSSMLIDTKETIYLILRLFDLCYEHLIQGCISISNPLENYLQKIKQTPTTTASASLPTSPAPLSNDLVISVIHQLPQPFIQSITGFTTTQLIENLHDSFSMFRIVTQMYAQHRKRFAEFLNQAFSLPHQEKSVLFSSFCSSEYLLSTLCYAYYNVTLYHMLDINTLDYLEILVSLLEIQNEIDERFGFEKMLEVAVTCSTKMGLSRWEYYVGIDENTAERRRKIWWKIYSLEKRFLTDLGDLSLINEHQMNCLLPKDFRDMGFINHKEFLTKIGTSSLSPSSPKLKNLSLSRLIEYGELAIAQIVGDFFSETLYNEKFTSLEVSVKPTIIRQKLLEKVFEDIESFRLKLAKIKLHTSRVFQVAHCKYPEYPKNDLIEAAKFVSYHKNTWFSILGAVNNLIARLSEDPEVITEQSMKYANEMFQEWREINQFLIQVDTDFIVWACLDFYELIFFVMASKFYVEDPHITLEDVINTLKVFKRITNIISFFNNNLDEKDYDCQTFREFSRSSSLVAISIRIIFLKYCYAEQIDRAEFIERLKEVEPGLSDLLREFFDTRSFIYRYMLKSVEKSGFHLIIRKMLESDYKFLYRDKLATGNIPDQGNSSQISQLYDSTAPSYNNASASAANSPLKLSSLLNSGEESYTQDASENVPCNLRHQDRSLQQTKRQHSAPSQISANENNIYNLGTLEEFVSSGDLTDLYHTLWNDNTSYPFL
# Assay: PBM E-score (8-mer binding enrichment) (E-score (-0.5 to 0.5)); higher = stronger / more preferred TF binding; most listed sequences are background and not binding sites
# Conditions: protein concentration: 200 nM; construct: GST-full length
# Summary of the method: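 Universal all-10-mer Agilent arrays, fresh or stripped once, were converted to double-stranded form by primer extension. GST-tagged yeast transcription factors from PURExpress in vitro transcription/translation, full-length or DNA-binding domain only, were applied at about 100-200 nM and detected with fluorescent anti-GST. After masliner normalisation, the Universal PBM Analysis Suite scored each ungapped eight-base word together with its reverse complement by E-score.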
row,Sequence,PBM E-score
1,AGGCACCC,-0.246
2,CCGGGCAC,0.364
3,GAAGTCAC,-0.0349
4,CTCTCAAG,-0.108
5,ATTGTGCA,-0.0815
6,ATCGACTG,0.0265
7,TATTTACA,-0.097
8,CTCCCCCC,-0.136
9,AGCTCTTC,0.0701
10,ATTCGGAG,0.2
11,CCTTGTAG,-0.149
12,CATAATGA,-0.125
13,GGGCCCGA,0.269
14,CCTGCTTC,-0.0723
15,CATATGCA,-0.0934
16,GGAAGGCC,0.00722
17,GTGCAAAC,-0.0815
18,ACCCAAAG,-0.146
19,GTGTAGCA,-0.244
20,CGGGAGCC,0.169
21,CCTGTCCG,0.138
22,AAGGCAGC,-0.0731
23,ACATATTG,-0.137
24,CACCCGGG,0.398
25,CCAGAAAG,0.0367

row,Sequence,PBM E-score
1,CGTCAACA,0.0257
2,AGCTTAGA,-0.115
3,AGGTGATA,-0.0755
4,CAAGAGTG,-0.149
5,TACGAAGA,-0.188
6,AGCTTACT,-0.113
7,ATGCCGTC,0.225
8,GCTTAATA,-0.125
9,AAACGGGC,0.113
10,TCACTCAA,-0.186
11,GCTTACCC,-0.197
12,ATATTTCG,0.147
13,AAGTATGC,-0.214
14,ATTCGTTG,0.207
15,GATGGGAC,0.13
16,GATGTAAC,0.0399
17,ATGGTCTG,-0.0441
18,CATTCGAA,-0.136
19,GAATGAAA,0.102
20,CTTATAAG,0.135
21,ACTAGATG,-0.118
22,CGGTGTCA,-0.0513
23,TCCGACAA,0.233
24,CCTGCCAC,-0.114
25,CTTTTCGC,0.138

row,Sequence,PBM E-score
1,TCAAAACA,-0.0553
2,AATTTGTC,-0.134
3,ATGCTCTA,-0.211
4,TATAAGAA,0.029
5,CGGGTGAG,0.201
6,CAACTCCG,0.277
7,AGCTAAGC,-0.132
8,ATCCGCAA,0.222
9,AACGTAGA,0.12
10,CTCTTGCC,-0.056
11,AACACTCC,0.182
12,AAAGCTCC,0.109
13,AACGGGTG,0.226
14,CCCCGGCG,0.162
15,ACCCGCTG,0.126
16,CTCCGACC,0.174
17,ATAGGCTC,-0.151
18,CCAAGAGC,-0.159
19,CCGAAACG,0.168
20,CCGGGAGA,0.369
21,CCCCAGTA,-0.0517
22,GTCTTAAC,-0.273
23,CAATTTAC,-0.0856
24,GATATGCC,0.103
25,CGAGAACA,-0.00392

row,Sequence,PBM E-score
1,CCGTGGTC,0.113
2,GGAAGCCA,0.0692
3,CCGCACCA,0.169
4,CCGAGCAA,0.209
5,CAGATAGA,-0.115
6,CGTAGTGC,-0.138
7,GACGACTA,-0.203
8,ACACTATC,-0.0702
9,TCACACCA,-0.13
10,CCTCTCCA,-0.341
11,CAGAATGC,0.0462
12,AGCCGGTC,-0.0317
13,GATCCACA,0.0247
14,AAATTCCG,0.418
15,TGCCGGAA,0.454
16,GCTGTTTA,0.0507
17,TAAACTAA,0.0834
18,CGAAGAAA,0.182
19,AGTGATCC,-0.0637
20,CGTCTTCA,-0.00054
21,ACGGGTGA,0.172
22,GCCCACGC,-0.139
23,CATAATTC,0.0534
24,ACGAGTCA,-0.323
25,AAATGTAC,-0.0787

row,Sequence,PBM E-score
1,CGTTCCAG,-0.139
2,TACAGAGA,-0.169
3,ATCTCGGC,0.325
4,GCCCATTA,-0.114
5,CAAAAAAC,-0.0172
6,GACAAACC,-0.0403
7,ACAATAAG,-0.0602
8,GCAACTGC,-0.0425
9,CCAGAGAA,-0.141
10,ACTTGGGG,0.0103
11,AATGCCCA,-0.0176
12,CGCGGCCG,0.309
13,GTGCTTCA,-0.0273
14,AATGTACG,-0.0699
15,AAGACAAT,-0.136
16,CCTTCTAC,-0.169
17,AGTATAGA,0.104
18,ACAGTTCC,0.387
19,GGGAAGCA,-0.0013
20,CGCCAGCC,0.195
21,ACACTGGC,-0.0897
22,CGGCGGAC,0.289
23,ACGCCCCA,0.128
24,CTTCTTGC,0.0838
25,AGCCCCGA,-0.00177

row,Sequence,PBM E-score
1,ATCATAAG,-0.0374
2,TAGGCCAA,-0.0116
3,GAGCAGGC,-0.144
4,AAAGTATT,-0.102
5,CGGTGTAA,-0.045
6,CACGCGCC,0.114
7,GGTATAGA,-0.0535
8,GTGGGTAA,-0.077
9,GACAGGCA,-0.0484
10,ACTGAAGT,-0.0702
11,ATTCGATC,0.0561
12,GATGCTTA,-0.13
13,AGTCAACC,-0.133
14,GGCTGCAC,0.0936
15,GGCATTAA,-0.059
16,AAGTATCT,-0.111
17,GCGCAGAA,0.0635
18,CGTAGGAG,-0.165
19,ACTGGTCC,0.109
20,CACGTCAG,-0.0801
21,ATAACTAA,-0.0713
22,ATGTTTAC,-0.0373
23,AAACCTTG,-0.163
24,TCCATCAA,0.0544
25,GGAGGTGA,0.124

row,Sequence,PBM E-score
1,GAACAGAC,0.175
2,GTTGGGAA,-0.0395
3,GGGATATA,0.239
4,AGCCGGGC,0.137
5,CGCTCAAC,-0.0135
6,ACATTCGA,-0.102
7,ATAATAAT,-0.0285
8,AGCAGGAT,-0.0407
9,ACCCCCGC,0.126
10,AATCTTAA,-0.212
11,CGGCGAAA,0.233
12,CGGGCTGA,0.148
13,AGACTTAA,-0.325
14,AGAAATAA,0.0545
15,AATGGTGA,-0.219
16,GCCATAGA,-0.147
17,GTGGGCTA,-0.203
18,AGAAGTCG,-0.109
19,CATGTCTA,-0.202
20,ACATGCAT,-0.107
21,CCCACCGG,0.248
22,GTGGATGA,-0.0594
23,CGCCTGTA,-0.0268
24,ATCCGGAG,0.433
25,AAACAATG,-0.114

row,Sequence,PBM E-score
1,AATAAATG,0.0227
2,CAGCCTGA,-0.266
3,CCCATAAA,-0.0892
4,ACTTTTAC,0.0984
5,GTCAGAGA,-0.244
6,TTATGGAA,0.0348
7,ATGCAAAC,-0.02
8,ATTGACGA,-0.132
9,TACGCTGA,0.102
10,AGCACGGC,0.185
11,ACAGGAGT,-0.173
12,GAGTCCCC,-0.106
13,ATCCAATC,0.0224
14,ACTTAGAA,-0.165
15,TGGTAGAA,-0.0271
16,TAAAAGAA,-0.193
17,CCCTACCG,-0.00608
18,CATACTGC,0.0262
19,CAGGCGGG,0.0666
20,CAAGAATA,0.088
21,ATCTACGC,0.0856
22,ATGACTCA,-0.205
23,CTTCGAAA,-0.364
24,AAGTGAGG,-0.173
25,AACAGTCA,-0.188

row,Sequence,PBM E-score
1,ACAGTCAT,-0.164
2,ACCGCTCC,0.00116
3,AGTGGCAC,-0.145
4,CGGTAACC,0.198
5,GTTCAAAC,-0.0193
6,ATGAAGAG,-0.0741
7,AAACAGGC,-0.155
8,GGAGAGAA,0.0169
9,AAGAACAA,0.149
10,ATGGTACC,-0.0183
11,GAACCTGC,0.0396
12,AAGCCGTC,0.178
13,ACTGTCAT,-0.14
14,AGATTTAC,0.0482
15,ATGGAAGG,-0.197
16,GATCCGTA,0.336
17,CCTTGAGC,-0.168
18,CTTCGATC,-0.0632
19,TGCACACA,-0.0347
